In article PMC4336329 (PLoS ONE, 2015):
Among all 310,000 compounds or so, about 14,000 (4.5%) showed an effect of 50% or more. Effects have a minus sign here. This is one part of the list.

biological target: human ether-à-go-go-related gene (hERG) potassium channel (human, UniProt Q12809); assay: primary screen, population patch clamp on CHO cells stably expressing hERG
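Note: peak tail current of the secondary pulse compared with the same well before compound.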

Chain of human ether-à-go-go-related gene (hERG) potassium channel (Q12809 whole entry, looked up): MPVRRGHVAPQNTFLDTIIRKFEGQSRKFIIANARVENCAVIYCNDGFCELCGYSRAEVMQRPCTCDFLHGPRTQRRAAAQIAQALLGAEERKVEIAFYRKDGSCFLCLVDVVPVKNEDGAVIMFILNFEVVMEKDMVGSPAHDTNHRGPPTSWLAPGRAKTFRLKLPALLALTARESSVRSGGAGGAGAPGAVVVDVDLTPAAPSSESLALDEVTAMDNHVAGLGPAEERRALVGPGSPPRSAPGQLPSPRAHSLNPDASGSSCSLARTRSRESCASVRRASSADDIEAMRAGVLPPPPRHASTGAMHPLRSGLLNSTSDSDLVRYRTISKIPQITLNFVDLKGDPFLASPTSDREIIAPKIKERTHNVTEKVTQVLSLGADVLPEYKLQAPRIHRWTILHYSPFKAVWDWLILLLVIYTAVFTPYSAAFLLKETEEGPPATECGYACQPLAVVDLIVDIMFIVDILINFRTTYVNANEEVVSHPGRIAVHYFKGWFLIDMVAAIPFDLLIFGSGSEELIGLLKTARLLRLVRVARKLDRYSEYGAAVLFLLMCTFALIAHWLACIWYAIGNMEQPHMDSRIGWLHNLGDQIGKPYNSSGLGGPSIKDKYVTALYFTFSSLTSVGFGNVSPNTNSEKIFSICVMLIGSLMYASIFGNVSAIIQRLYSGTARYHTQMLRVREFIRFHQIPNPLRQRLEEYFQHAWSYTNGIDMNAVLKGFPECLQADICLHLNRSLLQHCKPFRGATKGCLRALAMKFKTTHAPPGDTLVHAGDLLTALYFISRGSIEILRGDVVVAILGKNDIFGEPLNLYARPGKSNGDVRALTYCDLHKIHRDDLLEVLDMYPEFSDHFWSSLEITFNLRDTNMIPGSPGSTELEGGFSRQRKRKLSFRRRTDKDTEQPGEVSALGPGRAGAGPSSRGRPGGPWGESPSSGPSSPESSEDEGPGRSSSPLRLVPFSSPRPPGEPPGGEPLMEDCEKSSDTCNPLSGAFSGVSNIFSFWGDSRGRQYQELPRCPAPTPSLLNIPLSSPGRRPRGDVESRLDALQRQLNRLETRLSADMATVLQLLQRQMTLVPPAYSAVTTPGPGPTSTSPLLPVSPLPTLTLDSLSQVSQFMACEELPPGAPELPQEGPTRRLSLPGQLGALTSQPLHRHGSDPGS

SMILES | hERG current change (%, negative = inhibition) at 10uM
CCOC(=O)Cn1nc(C)n(-c2ccc(C(C)C)cc2)c1=O | -1.13%
O=C(O)c1ccc(S(=O)(=O)N(Cc2ccccc2)C2CCCCC2)cc1 | 4.19%
CCS(=O)(=O)N1CCN(C(=O)c2ccccc2[N+](=O)[O-])CC1 | 15.5%
O=C(OCCN=C1NS(=O)(=O)c2ccccc21)c1cccs1 | 9.68%
COC(=O)CCC(=O)OC1(C)C(=O)C2=COC(c3ccc(OC)cc3)=CC2=C(Br)C1=O (stereo not drawn) | 9.76%
Cl.NCCS(=O)(=O)NC1CCCCC1 | 14.5%
O=C1c2ccccc2C(=O)c2c1ccc1c(=O)n(C3CCCCC3)[nH]c21 | -1.1%
CC1CCN(C(=O)c2ccc(Br)c(S(=O)(=O)N3CCOCC3)c2)CC1 | -3.74%
COc1ccccc1/C=C1\SC(=S)N(CCC(=O)N2CCN(C)CC2)C1=O | 13.9%
O=C(Nc1cccc(C(F)(F)F)c1)C1=CC=CN2CCS(=O)(=O)N=C12 | -35%
C/C(=N/NS(=O)(=O)c1ccc(C)cc1)c1ccc2c(c1)OCO2 | 13%
CCCCN(Cc1cc2ccccc2[nH]c1=O)S(C)(=O)=O | -0.365%
COc1ccc(N2C(=O)CC(S/C(N)=N/N=C/c3ccnc4ccccc34)C2=O)cc1 (stereo not drawn) | 13.6%
Cc1ccc(S(=O)(=O)NC(c2ccccc2)C(C)C(=O)n2nc(C)cc2C)cc1 (stereo not drawn) | 1.62%
CCN(C1CCCCC1)S(=O)(=O)c1ccc(C(=O)O)cc1 | 6.74%
COc1ccc(CNC(=O)C2(CC3CC(c4ccccc4)=NO3)CCN(C(=O)C3CCCC3)CC2)cc1 (stereo not drawn) | -71.6%
O=C(Nc1nc2ccccc2s1)C1CCN(C(=O)c2ccco2)CC1 | -41.9%
O=C(Cc1ccc(F)cc1)Nc1cccc(-c2cn3c(n2)SCC3)c1 | -16.6%
Cc1cc2nnc(SC(C)C#N)n2c2ccccc12 (stereo not drawn) | -1.57%
CC(Oc1ccc2c3c(c(=O)oc2c1)CCC3)C(=O)NCc1cccnc1 (stereo not drawn) | -9.15%
Cc1ccsc1/C=N/NC(=O)c1nnn(-c2nonc2N)c1CSc1ccccc1 | 21.5%
COc1cc(-c2nnn(CC(=O)N3CCOCC3)n2)cc(OC)c1OC | 3.36%

SMILES | hERG current change (%, negative = inhibition) at 10uM
O=C(CCNC(=O)c1ccc([N+](=O)[O-])cc1)Nc1cccc(S(=O)(=O)N2CCCCCC2)c1 | -75.1%
COc1ccc(NC(=O)CCNS(=O)(=O)c2cccc3nonc23)cc1Cl | 32.3%
COC(=O)CCC(=O)Nc1ccc(C)cc1OC(=O)CCC(=O)OC | 13.2%
Cc1ccc(S(=O)(=O)n2nc(OC(=O)c3cccc(F)c3)cc2N)cc1 | 20.4%
CCNc1nc(Oc2ccccc2)nc(OC(C)C(=O)OCC)n1 (stereo not drawn) | -7.55%
CN(CC(=O)Nc1ccccc1Br)Cc1nc2ccccc2c(=O)[nH]1 | -23.2%
CC(C)OC(=O)CC(=O)CSc1nc2c(c(-c3cccs3)c1C#N)CCC2 | -8.89%
COC(=O)c1ccc(CN2C(=O)NC(Cc3c[nH]c4ccccc34)C2=O)cc1 (stereo not drawn) | 14.8%
N#Cc1c(NC(=O)c2ccccc2)sc2c1CCCCC2 | 7.75%
COc1ccc(C2CC(=O)C=C(NC3CCCC3)C2)cc1 (stereo not drawn) | -5.76%
Cc1cc(NC(=O)Nc2ccc(Cl)cc2)n(-c2ccccc2)n1 | 1.59%
Cc1nnc(SCC(=O)Nc2ccc(F)cc2F)n(N)c1=O | -2.07%
CCOC(=O)C1CCCCN1Cc1ccccc1C(F)(F)F (stereo not drawn) | -5.9%
COc1cccc(C(=O)N(Cc2ccco2)Cc2cc3cccc(C)c3[nH]c2=O)c1 | -8.22%
CNc1nc(-c2ccc3c(c2)CCN3C(=O)c2ccccc2F)c(C)s1 | 23%
CC1(C)CC(=O)c2cc(OCC(=O)NCC3CCCO3)ccc2O1 (stereo not drawn) | 13.2%
COc1cc2nc(/C=C/c3cc(OC)c(OC)c(OC)c3)sc2cc1SC | 5.92%
COc1cc(/C=N/NC(=O)C(=O)NCc2ccco2)cc(Cl)c1O | 1.79%
CC(C)CCNC1c2ccccc2C(=O)N1Cc1ccccc1.Cl (stereo not drawn) | -7.9%
CC1=CCC2C(=O)N(c3ccc(C(=O)N4CCCCCC4)cc3)C(=O)C2C1 (stereo not drawn) | 4.64%
O=c1[nH]cnc2c1c(-c1ccccc1)cn2-c1ccc(Br)cc1 | 5.66%
O=C(COC(=O)c1ccc(S(=O)(=O)N2CCOCC2)cc1)NC1CCCCCCC1 | 12.2%

SMILES | hERG current change (%, negative = inhibition) at 10uM
COC(=O)C1=C(c2ccc(OC)c(OC)c2)C[C@@H]2CC[C@H]1N2C(=O)NC1Cc2ccccc2C1 | -12%
Cc1cc2c(cc(C(=O)N3CCC(C(=O)N4CCCC4)CC3)n2Cc2c(F)cccc2Cl)o1 | -36.6%
COc1ccc(/C=C/C(=O)NC(=S)Nc2ccc(S(=O)(=O)Nc3cc(C)on3)cc2)cc1 | -6.89%
COC(=O)[C@H](Cc1ccccc1)NC(=O)NCCc1ccc(OC)cc1 | -7.19%
COC(=O)Nc1ccc(NC(C)=O)cc1 | 31.5%
O=C(c1ccc2c(c1)OCCCO2)N1CCCCC1 | 11.7%
Cc1c(C(=O)N2CCCCCC2)oc2ccccc12 | -37.3%
COc1ccc2c(c1)c(C(=O)CNc1nc(C)cs1)c(C)n2C.I | -16.8%
N#Cc1ccc(Cn2cc(C=O)c3ccccc32)cc1 | -80.8%
CNC(=S)N1CCN(C(c2ccccc2)c2ccccc2)CC1 | -15.6%
Cc1ccc(CNC(=O)c2ccc(CN3CCOCC3)cc2)cc1 | 5.22%
O=C(N/N=C/c1ccccn1)c1cc(-c2ccc(Br)s2)[nH]n1 | -9.86%
CC1CCCC(C)N1/N=C/c1c[nH]c2ccc(Br)cc12 (stereo not drawn) | -6.05%
CCN(CC)CCNC(=O)c1ccc(NC(=O)c2c(C)nn(-c3ccc(F)cc3)c2Cl)cc1 | -60%
CC(C)N1C(=O)CN(C2CCCCCC2)C(=O)C1c1ccccc1F (stereo not drawn) | -9.67%
COc1cc(C(=O)Nc2cc(S(C)(=O)=O)ccc2Cl)ccc1OCC(=O)N1CCOCC1 | -2.54%
Cc1ccc2ncccc2c1[N+](=O)[O-] | 4.07%
CCN1C(=O)[C@H]2[C@@H](c3ccc(C)cc3)N3C(=O)N(c4ccc(OC)cc4)C(=O)[C@@]3(Cc3ccccc3)[C@H]2C1=O | 10.9%
CCOC(=O)Nc1ccc2c(c1)N(C(=O)CNC)c1ccccc1CC2.Cl | -13.4%
Cc1ccc(OCC(=O)N2CCc3ccccc3C2)c([N+](=O)[O-])n1 | -4.35%
Cc1cc(C)c(S(=O)(=O)c2ccccc2C(=O)O)c(C)c1 | 9.38%
COc1ccc(-n2nc(C(=O)NCC(=O)N3CCCC3)c3ccccc3c2=O)c(OC)c1 | 13.3%

SMILES | hERG current change (%, negative = inhibition) at 10uM
Cc1cc(C)n2nc(C(=O)Nc3ccc(S(=O)(=O)N4CCCCC4)cc3)nc2n1 | -3.52%
CC(=O)SC1CC(=O)N(c2c(C)cccc2C)C1=O (stereo not drawn) | 13.1%
COC(=O)c1cn(C(=O)c2ccc(Cl)cc2)c2ccccc12 | 5.92%
COc1ccc(Cl)cc1N1C(=NC(=O)C2CCCCC2)SC2CS(=O)(=O)CC21 (stereo not drawn) | -39.5%
CC(Oc1ccc2oc3ccccc3c2c1)C(=O)NC12CC3CC(CC(C3)C1)C2 (stereo not drawn) | 21.1%
CCn1nc(C(=O)Nc2cccc3ccccc23)c(Cl)c1Cl | 4.75%
O=C(/C(=C/O)N=Nc1ccccc1)c1ccncc1 | -12.1%
COc1cnc(-c2ccccn2)nc1Sc1cccc(Cl)c1 | 14.2%
CCc1cc(C(c2cccc(OC)c2)N2CCOCC2)c(NC(=O)c2ccccc2)s1 (stereo not drawn) | -1.91%
CCCCC(=O)NC(=S)Nc1cccc(C(=O)O)c1 | 13.7%
O=C(CN1NS(=O)(=O)c2ccccc2C1=O)Nc1ccccc1OC(F)F | -6.18%
COc1ccc(N(CC(=O)NCc2ccccc2C)S(=O)(=O)c2ccc(C)cc2)cc1OC | 4.46%
COc1ccc(C2=NS(=O)(=O)N(C)C(C(=O)N3C(C)CCCC3C)=C2)cc1 (stereo not drawn) | -1.72%
CC(=O)Nc1ccc(NC(=O)C2CC(=O)N=C(N)S2)cc1 (stereo not drawn) | 5.46%
CCCCn1c(N)c(N(CCC(C)C)C(=O)c2ccc(C)c(S(=O)(=O)N3CCOCC3)c2)c(=O)[nH]c1=O | -5.28%
Cn1c(O)c(C(=O)c2ccccc2)c(=O)n(C)c1=O | 6.11%
COc1cccc(NCCC(=O)c2cccc([N+](=O)[O-])c2)c1 | 1.61%
O=C(NC1CCCC1)C1CC(c2ccc(F)cc2)=NO1 (stereo not drawn) | -5.02%
Cc1cc(C(=O)N/N=C/c2ccccn2)c2ccccc2n1 | 14.5%
Cc1ccc(NC(=O)CCNS(=O)(=O)c2ccc(OC(F)(F)F)cc2)c(O)c1 | -7.66%
Cc1c(Br)c(C(F)(F)F)nn1CC(=O)NCCN1CCOCC1 | 0.425%
